Source: PubChem BioAssay AID1347120 (National Center for Advancing Translational Sciences (NCATS), 2019)
The campaign covered roughly 390,000 compounds. About 930 (0.24%) were called active. Inconclusive means that the source gave no clear call. Such entries were picked first, then a sample of the others. Calls follow the shape of the dose curve; as a rule, active = well fitted activation curve with a large enough effect; inconclusive = small, poorly fitted or top-dose-only effect; inactive = no such curve, though single readings can be large or run the other way. Potencies of inconclusive entries are doubtful fits and often do not repeat.
Potency is read from the fitted curve at half-maximal effect; tags tell the direction and shape of the fitted curve.

Assay: qHTS for Suppressors of FUS Proteinopathy: Primary screen using FUS-linked yeast assay; also: nearly all actives have a fitted effect of over 55% in size;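 as to growth rescue (activation): plate controls were DMSO vehicle for no effect and reference control for full effect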
Details: S. cerevisiae FUS-expressing, OD600, 24 h; Potency: growth rescue; growth rescue (activation): at 76.6 µM (top of the series)
In short: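 Quantitative HTS measuring growth restoration of FUS-toxic yeast. Galactose-induced cells (OD 0.005) were exposed 24hr at 30C to compounds at several concentrations, then absorbance at 600 nm was recorded.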
With `Cc1ccccc1S(=O)(=O)NC(=O)C1(C)CCN1C(=O)c1ccccc1CCc1ccccc1` (configuration not stated) the Potency was inconclusive: 35.5 µM [activator, single point]. With `CC(C)CCNC(=O)C(c1cccnc1)N(CCc1ccccc1)C(=O)Cn1nnc2ccccc21` (configuration not stated) the “growth rescue (activation)” value was inactive: -2.65%. For `Cc1ccc(-c2cn(-c3ccc(Cl)cc3)c(S(=O)(=O)CC(=O)Nc3ccccc3)n2)cc1`, the Potency was inconclusive: 28.2 µM [activator, single point]. With `CC(=O)Nc1ccc(S(=O)(=O)N(C2=NCC(C)S2)c2ccccc2)cc1` (configuration not stated) the Potency was inconclusive: 10 µM [activator, single point]. With `C=CCOC(=O)C1=C[C@@H](C2CCCCC2)C[C@@H](OCc2ccc(CO)cc2)O1` the Potency was inconclusive: 50.1 µM [activator, single point]. In the case of `Cc1cc(C)cc(-n2ccn(Cc3ccc(F)cc3)c(=O)c2=O)c1`, the “growth rescue (activation)” value is reported as inactive: -2.96%. For `COC(=O)CCC(=O)OC1(C)C(=O)C=C2C=C(C3CC3)N(c3cccc(C#N)c3)C=C2C1=O` (configuration not stated), the Potency was inconclusive: 39.8 µM [activator, single point]. For `CCOc1ccc(S(=O)(=O)NCCc2sc3nc(-c4ccc(C)cc4)nn3c2C)cc1`, the “growth rescue (activation)” value was inactive: 2.42%. In the case of `COc1ccc(/C=N/Nc2nc(N3CCCCC3)nc(N3CCCCC3)n2)cc1[N+](=O)[O-]`, the Potency is reported as inconclusive: 44.7 µM [activator, partial curve, poor fit]. In the case of `O=C(NCc1cc(C(F)(F)F)cc(C(F)(F)F)c1)C12CN(Cc3ccccc3)CC1C(c1cccc([N+](=O)[O-])c1)=NO2` (configuration not stated), the Potency is reported as inconclusive: 31.6 µM [activator, partial curve]. With `CCOc1ccc(S(=O)(=O)Nc2cc(Cl)ccc2OC)c2cccnc12` the “growth rescue (activation)” value was inactive: 36%. In the case of `Cc1cc(C)n(Cc2ccc(C(=O)N/N=C/c3ccc(-c4ccc([N+](=O)[O-])cc4)o3)o2)n1`, the “growth rescue (activation)” value is reported as inactive: 14.4%. For `CCCc1nc(SCC(=O)Nc2nc3c(s2)CCCC3)c2ccccc2n1`, the Potency was inconclusive: 50.1 µM [activator, single point]. With `O=C(CSCc1ccc(F)cc1)Nc1nc2c(s1)CCCC2` the “growth rescue (activation)” value was inactive: -25.1%. With `Cc1ccc(C)c2[nH]c(=O)c(C(c3nnnn3Cc3ccccc3)N3CCc4ccccc4C3)cc12` (configuration not stated) the Potency was inconclusive: 39.8 µM [activator, partial curve, poor fit]. For `O=C(CN1CCOc2ccccc21)NCc1cccs1`, the Potency was inconclusive: 0.316 µM [activator, full curve, poor fit]. For `COc1cc(C2C(C(C)=O)=C(O)C(=O)N2c2ccc(Br)cn2)ccc1O` (configuration not stated), the Potency was inconclusive: 12.6 µM [activator, partial curve, poor fit]. In the case of `COc1cc(C2C(C(=O)Nc3ccccc3)=C(C)Nc3nnnn32)cc(OC)c1OC` (configuration not stated), the “growth rescue (activation)” value is reported as inactive: 9.66%. With `CCCCOC(=O)c1ccc(Nc2nnc(-n3nc(C)cc3C)c3ccccc23)cc1` the Potency was inconclusive: 17.8 µM [activator, partial curve, poor fit]. In the case of `CCOc1ccc(NC(=O)CC2C(=O)N(c3ccc(OC)cc3)C(=S)N2Cc2ccccn2)cc1` (configuration not stated), the Potency is reported as inconclusive: 39.8 µM [activator, single point]. With `Cc1ccc(Cl)cc1N1CCN(C(=O)c2ccc(CS(=O)Cc3ccc(Cl)cc3)o2)CC1` (configuration not stated) the Potency was inconclusive: 31.6 µM [activator, single point]. For `O=C(Oc1cc(-c2ccccc2)no1)c1ccc(Cl)cc1`, the “growth rescue (activation)” value was inactive: 1.32%. For `CN(C)c1ccc(NC(=O)CSCc2nc3c(nnn3Cc3ccc(F)cc3)c(=O)[nH]2)cc1`, the Potency was inconclusive: 44.7 µM [activator, partial curve, poor fit]. For `CCc1cccc(CC)c1-n1c(SCC(=O)N2CCCc3ccccc32)nc(O)cc1=O`, the Potency was inconclusive: 15.8 µM [activator, partial curve, poor fit]. In the case of `Cc1c(C(=O)O)sc2nc(C)n(C)c(=O)c12`, the Potency is reported as inconclusive: 10 µM [activator, single point]. With `COc1ccccc1C1/C(=C(\O)c2ccc3c(c2)OCCO3)C(=O)C(=O)N1Cc1cccnc1` (configuration not stated) the Potency was inconclusive: 17.8 µM [activator, partial curve]. In the case of `COc1ccc(Cl)cc1NC(=O)CSc1nc2ccsc2c(=O)n1CC1CCC(C(=O)O)CC1` (configuration not stated), the Potency is reported as inconclusive: 20 µM [activator, single point]. In the case of `Cc1ccc(N=Cc2nc(-c3ccc(C)cc3)oc2O)cc1`, the Potency is reported as inconclusive: 28.2 µM [activator, single point]. For `COc1ccc(N(C(=O)COc2ccccc2OC)S(=O)(=O)c2ccc(Cl)cc2)cc1`, the Potency was inconclusive: 31.6 µM [activator, partial curve, poor fit]. In the case of `COc1ccc(-c2[nH]ncc2-c2cnn(-c3ccccc3)c2)c(O)c1`, the Potency is reported as inconclusive: 39.8 µM [activator, single point]. In the case of `Cc1ccc(S(=O)(=O)N(C)C[C@H]2Oc3ncc(Br)cc3C(=O)N([C@H](C)CO)C[C@@H]2C)cc1`, the Potency is reported as inconclusive: 35.5 µM [activator, single point]. In the case of `O=c1[nH]c(=O)n(Cc2ccccc2)c2nc(-c3ccco3)cc(C(F)(F)F)c12`, the “growth rescue (activation)” value is reported as inactive: 32.4%. For `O=C(CSc1nnc(-c2ccco2)c(-c2ccco2)n1)Nc1ccccc1`, the Potency was active: 22.4 µM. For `COc1ccc(/C=C/c2nc3ccccc3c(=O)n2-c2cccc(C(F)(F)F)c2)cc1`, the “growth rescue (activation)” value was inactive: -6.2%. In the case of `COc1ccc(/C=C/S(=O)(=O)NC2CCCC2)c(CNC(=O)OC(C)(C)C)c1`, the “growth rescue (activation)” value is reported as inactive: 10.6%. In the case of `Cc1c(/C=N/NC(=O)c2ccc(O)cc2)c2ccccn2c1C(=O)c1ccc(F)cc1`, the Potency is reported as inconclusive: 28.2 µM [activator, partial curve]. In the case of `Cc1cc(S(=O)(=O)NCC(c2ccc(N(C)C)cc2)N2CCOCC2)ccc1F` (configuration not stated), the “growth rescue (activation)” value is reported as inactive: -5.41%. In the case of `O=C(CSC1=Nc2ccccc2N=C(c2ccc(F)cc2)C1)NCc1ccc(Cl)cc1`, the “growth rescue (activation)” value is reported as inactive: 17.1%. In the case of `C[C@H](CO)N1C[C@H](C)[C@@H](CN(C)S(=O)(=O)c2ccc(F)cc2)Oc2ccc(NC(=O)Cc3cn(C)c4ccccc34)cc2C1=O`, the Potency is reported as inconclusive: 22.4 µM [activator, partial curve, poor fit]. In the case of `CCn1nc(C)c2c(-c3ccccc3)cc(=O)n(C(C)C(=O)NCc3ccc(C)cc3)c21` (configuration not stated), the Potency is reported as inconclusive: 20 µM [activator, partial curve, poor fit]. For `CCC(C)c1ccc(C(C)NC(=S)NCc2ccc(F)cc2)cc1` (configuration not stated), the “growth rescue (activation)” value was inactive: -1.38%. With `C=CCC[C@@H](Cc1ccc(F)cc1)C(=O)O[C@H](CNC(=O)[C@H](CC=C)CC(=O)N(CCO)Cc1ccccc1)c1ccccc1` the Potency was inconclusive: 20 µM [activator, partial curve, poor fit]. For `CCOC(=O)c1cccc(NC(=O)C(Cc2ccccc2)NS(=O)(=O)c2cccc3nsnc23)c1` (configuration not stated), the Potency was inconclusive: 44.7 µM [activator, single point]. With `Cc1cc(OCC(=O)NC(C)c2ccccc2)ccc1[N+](=O)[O-]` (configuration not stated) the Potency was inconclusive: 3.98 µM [activator, partial curve, poor fit]. With `CCc1ccccc1OCCSc1nnc(-c2cc(OC)c(OC)c(OC)c2)o1` the Potency was inconclusive: 31.6 µM [activator, single point]. With `COc1cc2c(cc1OC)CN(C(=O)c1cccc([N+](=O)[O-])c1)CC2` the “growth rescue (activation)” value was inactive: 4.41%. In the case of `Cc1cc(-c2nnc(SCC(=O)Nc3c(C)cccc3C)n2N)n[nH]1`, the “growth rescue (activation)” value is reported as inactive: 21.2%. With `CC(C)(C)c1cn(-c2ccc(F)cc2)c(=S)[nH]1` the Potency was inconclusive: 39.8 µM [activator, single point]. In the case of `CCCCNC(=O)C1C(c2ccc(C(F)(F)F)cc2)=Nc2ccccc2N1C(C)=O` (configuration not stated), the Potency is reported as inconclusive: 22.4 µM [activator, partial curve, poor fit]. In the case of `COc1cccc2sc3cc(C#Cc4ccccn4)ccc3c(=O)c12`, the Potency is reported as inconclusive: 31.6 µM [activator, single point]. With `COC(=O)c1c(NC(=O)CN2CCC3(O)CCCCC3C2c2cc(OC)ccc2OC)sc(C)c1C` (configuration not stated) the Potency was inconclusive: 35.5 µM [activator, single point]. With `CC1=C(C(=O)OCC2CCCCC2)C(c2ccc(Cl)cc2Cl)CC(=O)N1` (configuration not stated) the Potency was inconclusive: 35.5 µM [activator, single point]. For `O=C(Nc1ccccc1OCc1cc(=O)n2ccccc2n1)c1ccccc1F`, the “growth rescue (activation)” value was inactive: -0.941%. For `CS(=O)(=O)c1ccc(Cl)c(NC(=O)C2CCCCN2S(=O)(=O)c2ccccc2)c1` (configuration not stated), the Potency was inconclusive: 50.1 µM [activator, single point]. For `CN(C)c1nc2sc3c(c2c(=O)n1C)CC(C)(C)OC3`, the “growth rescue (activation)” value was inactive: 12.6%. In the case of `CCOc1ccc(CCNC(=O)c2sc3ncccc3c2-n2c(C)ccc2C)cc1`, the Potency is reported as inconclusive: 50.1 µM [activator, single point]. In the case of `CCCN1CCc2c(sc(NC(=O)c3ccc(S(=O)(=O)N4CCN(C(=O)OCC)CC4)cc3)c2C(N)=O)C1`, the Potency is reported as inconclusive: 14.1 µM [activator, partial curve]. In the case of `O=C1CN(C(=O)COC(=O)c2ccc(N3CCCCCC3)c([N+](=O)[O-])c2)c2ccccc2N1`, the Potency is reported as inconclusive: 35.5 µM [activator, single point]. With `CCOC(=O)[C@]12CCC=C1N(CCC1=CCCCC1)C(=O)[C@H](CC(=O)N1CCC(c3ccccc3)CC1)C2` the Potency was inconclusive: 35.5 µM [activator, single point]. In the case of `CCOC(=O)c1c(NC(=O)COc2ncnc3ccccc23)sc(C)c1CC`, the Potency is reported as inconclusive: 28.2 µM [activator, partial curve, poor fit]. With `COc1ccc(S(=O)(=O)c2ccc(O)cc2)cc1` the “growth rescue (activation)” value was inactive: -14.1%. For `COc1ccc(Cn2ccc3nc(C)c(C(=O)N4CCN(c5cc(C)ccc5C)CC4)cc3c2=O)cc1`, the Potency was inconclusive: 31.6 µM [activator, single point].
